In the supplement of paper PMC6206098:
± gives the uncertainty stated by the source. The sequences are guide strands of siRNAs; only the seed at positions 2 to 7 varies.

Legend:
[1] = system: H460; test: cell viability relative to lipid-only control; higher = less toxic; conditions: concentration: 10 nM; 96 h; Homo sapiens
Experimental: (§1)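 Arrayed screen of 4096 siRNA duplexes, each carrying one of all possible 6mer seeds at guide-strand positions 2-7 in a fixed neutral 19mer scaffold (constant flanks: U at position 1, then ACAUGUAAACCA, plus a 3' AA overhang). The passenger strand is 2'-O-methylated at positions 1-2 so only the guide strand loads into RISC. Duplexes were reverse-transfected at 10 nM with RNAiMAX in triplicate in 384-well plates; viability was read by CellTiter-Glo ATP content 96 h after transfection. Values are % viability normalised to lipid-only wells (HeyA8, H460, M565) or to siNT1 (3LL).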

[2] = system: M565; test: as above; conditions: concentration: 10 nM; 96 h; Mus musculus
Experimental: as §1

[3] = system: HeyA8; test: as above; conditions: concentration: 10 nM; 96 h; Homo sapiens
Experimental: as §1

[4] = system: 3LL; test: cell viability relative to siNT1 control; HeyA8 human ovarian and H460 human lung cancer; M565 mouse liver and 3LL mouse lung cancer; siNT1 is a non-toxic control siRNA; higher = less toxic; conditions: concentration: 10 nM; 96 h; Mus musculus;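 further: Luminescence-based viability of cells reverse transfected in 384-well plates with lipid-complexed siRNAs built on a non-toxic 19mer backbone whose passenger strand carries 2′-O-methyl groups at positions 1 and 2, triplicates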
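Wherever cell viability relative to lipid-only control is given: reverse lipid transfection in 384-well plates, in triplicate, of duplexes on a non-toxic 19mer backbone with passenger strand 2′-O-methylated at positions 1 and 2, luminescence viability read-out.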

UGUUCUGACAUGUAAACCAAA
cell viability [1]: 63 ± 5.5% | cell viability [2]: 51.9 ± 5.9% | cell viability [3]: 69.3 ± 12% | cell viability [4]: 88.1 ± 6.3%

UAUAGUGACAUGUAAACCAAA
cell viability [1]: 81.8 ± 19% | cell viability [2]: 75.9 ± 6% | cell viability [3]: 90.3 ± 2% | cell viability [4]: 115 ± 6.8%

UUAACUAACAUGUAAACCAAA
cell viability [1]: 78.7 ± 15% | cell viability [2]: 104 ± 10% | cell viability [3]: 103 ± 8.3% | cell viability [4]: 99.6 ± 10%

UCCGAUGACAUGUAAACCAAA
cell viability [1]: 65.4 ± 19% | cell viability [2]: 66.2 ± 14% | cell viability [3]: 88.5 ± 9.2% | cell viability [4]: 101 ± 23%

UCGUUGCACAUGUAAACCAAA
cell viability [1]: 21.4 ± 2.5% | cell viability [2]: 13.3 ± 0.74% | cell viability [3]: 3.57 ± 0.53% | cell viability [4]: 50.9 ± 10%

UGCAGCUACAUGUAAACCAAA
cell viability [1]: 51.1 ± 3.5% | cell viability [2]: 27.2 ± 1.3% | cell viability [3]: 47.9 ± 5.2% | cell viability [4]: 17.5 ± 7.4%

UGAGGAUACAUGUAAACCAAA
cell viability [1]: 31 ± 2.4% | cell viability [2]: 21.7 ± 5% | cell viability [3]: 23.2 ± 2.8% | cell viability [4]: 48.6 ± 9.1%

UGCAUGCACAUGUAAACCAAA
cell viability [1]: 33.4 ± 0.56% | cell viability [2]: 27 ± 7.6% | cell viability [3]: 27 ± 6.8% | cell viability [4]: 17.3 ± 3.8%

UUUUCGCACAUGUAAACCAAA
cell viability [1]: 81.2 ± 12% | cell viability [2]: 82.4 ± 14% | cell viability [3]: 87.7 ± 2.4% | cell viability [4]: 62.3 ± 9.1%

UGGAUUAACAUGUAAACCAAA
cell viability [1]: 77.3 ± 23% | cell viability [2]: 37.3 ± 3.4% | cell viability [3]: 91.2 ± 11% | cell viability [4]: 92.6 ± 8.5%

UGCAGCCACAUGUAAACCAAA
cell viability [1]: 43 ± 3.1% | cell viability [2]: 10 ± 0.57% | cell viability [3]: 51.7 ± 1.9% | cell viability [4]: 15.4 ± 4.1%

UACUCGGACAUGUAAACCAAA
cell viability [1]: 83.5 ± 18% | cell viability [2]: 22.8 ± 6.8% | cell viability [3]: 76.4 ± 7.1% | cell viability [4]: 54.1 ± 5.4%

UGGGACGACAUGUAAACCAAA
cell viability [1]: 54.6 ± 5.2% | cell viability [2]: 38.2 ± 5% | cell viability [3]: 90.8 ± 9.2% | cell viability [4]: 97.7 ± 6%

UAUCAGCACAUGUAAACCAAA
cell viability [1]: 36.8 ± 5.4% | cell viability [2]: 24.7 ± 3% | cell viability [3]: 43.6 ± 3.2% | cell viability [4]: 32.9 ± 5.7%

UAGUGACACAUGUAAACCAAA
cell viability [1]: 28.6 ± 3.9% | cell viability [2]: 42.7 ± 11% | cell viability [3]: 41.5 ± 5.2% | cell viability [4]: 33.7 ± 3.9%

UGCAAAAACAUGUAAACCAAA
cell viability [1]: 67 ± 4.3% | cell viability [2]: 87.9 ± 11% | cell viability [3]: 92.7 ± 15% | cell viability [4]: 88.3 ± 9.4%

UUGAAUGACAUGUAAACCAAA
cell viability [1]: 99.6 ± 9.2% | cell viability [2]: 77.8 ± 18% | cell viability [3]: 91.4 ± 9.4% | cell viability [4]: 91.3 ± 11%

UGAUAUAACAUGUAAACCAAA
cell viability [1]: 60.2 ± 5.5% | cell viability [2]: 90 ± 6% | cell viability [3]: 67.3 ± 1.1% | cell viability [4]: 82.5 ± 16%

UCUGAUUACAUGUAAACCAAA
cell viability [1]: 55 ± 5.7% | cell viability [2]: 69.3 ± 9.6% | cell viability [3]: 83.5 ± 8.5% | cell viability [4]: 97.9 ± 14%

UCCUCGGACAUGUAAACCAAA
cell viability [1]: 57.3 ± 9.3% | cell viability [2]: 56.2 ± 7.4% | cell viability [3]: 80.4 ± 5.5% | cell viability [4]: 90.7 ± 21%

UGAUGAUACAUGUAAACCAAA
cell viability [1]: 44.3 ± 4.4% | cell viability [2]: 20.4 ± 3.9% | cell viability [3]: 45.5 ± 2.6% | cell viability [4]: 32.3 ± 4.2%

UGAAGCGACAUGUAAACCAAA
cell viability [1]: 94 ± 17% | cell viability [2]: 51.4 ± 5% | cell viability [3]: 83 ± 2.9% | cell viability [4]: 97.5 ± 7.5%

UGGCUGUACAUGUAAACCAAA
cell viability [1]: 41.7 ± 2.9% | cell viability [2]: 14.2 ± 2.9% | cell viability [3]: 14.6 ± 0.69% | cell viability [4]: 21 ± 3.5%

UAGCGUCACAUGUAAACCAAA
cell viability [1]: 59 ± 7% | cell viability [2]: 33.6 ± 4.6% | cell viability [3]: 41.9 ± 2.4% | cell viability [4]: 51.4 ± 1.6%

UACUUACACAUGUAAACCAAA
cell viability [1]: 57.1 ± 4.7% | cell viability [2]: 41.8 ± 7.9% | cell viability [3]: 29.7 ± 4% | cell viability [4]: 66.8 ± 3.7%

UUUUUUGACAUGUAAACCAAA
cell viability [1]: 62.3 ± 8% | cell viability [2]: 98 ± 20% | cell viability [3]: 97.8 ± 10% | cell viability [4]: 90.5 ± 4.5%

UUUCAUUACAUGUAAACCAAA
cell viability [1]: 37.3 ± 12% | cell viability [2]: 81.8 ± 6.4% | cell viability [3]: 82.9 ± 8.6% | cell viability [4]: 98.6 ± 7%

UGUGGUUACAUGUAAACCAAA
cell viability [1]: 47.5 ± 1.6% | cell viability [2]: 64.5 ± 11% | cell viability [3]: 60.5 ± 8.3% | cell viability [4]: 18.7 ± 5.5%

UUAGGUGACAUGUAAACCAAA
cell viability [1]: 79.2 ± 16% | cell viability [2]: 56.6 ± 14% | cell viability [3]: 74.4 ± 2.7% | cell viability [4]: 41.1 ± 6.8%

UUGGCACACAUGUAAACCAAA
cell viability [1]: 67.3 ± 6.5% | cell viability [2]: 38.7 ± 11% | cell viability [3]: 41.4 ± 5% | cell viability [4]: 57.1 ± 4.6%

UUCUCAGACAUGUAAACCAAA
cell viability [1]: 40.4 ± 2.4% | cell viability [2]: 67.2 ± 14% | cell viability [3]: 86.2 ± 1.7% | cell viability [4]: 91 ± 2.9%

UAUGGGUACAUGUAAACCAAA
cell viability [1]: 46.6 ± 4.8% | cell viability [2]: 27 ± 5.2% | cell viability [3]: 48.3 ± 5.5% | cell viability [4]: 72.9 ± 8.3%

UCAAAACACAUGUAAACCAAA
cell viability [1]: 62.5 ± 16% | cell viability [2]: 84.4 ± 8.1% | cell viability [3]: 75 ± 8% | cell viability [4]: 90.9 ± 13%

UGGAGAGACAUGUAAACCAAA
cell viability [1]: 61.8 ± 7.2% | cell viability [2]: 17.2 ± 3.3% | cell viability [3]: 21.3 ± 2.3% | cell viability [4]: 33.5 ± 1.2%

UUUUCGAACAUGUAAACCAAA
cell viability [1]: 75.3 ± 14% | cell viability [2]: 90.9 ± 12% | cell viability [3]: 89.1 ± 1% | cell viability [4]: 94.7 ± 4.3%

UUAGUCUACAUGUAAACCAAA
cell viability [1]: 80.7 ± 15% | cell viability [2]: 27.1 ± 3% | cell viability [3]: 96.5 ± 2% | cell viability [4]: 66 ± 7.3%

UCCGGCAACAUGUAAACCAAA
cell viability [1]: 61.8 ± 6.2% | cell viability [2]: 89 ± 17% | cell viability [3]: 56 ± 5.2% | cell viability [4]: 109 ± 13%

UCCGAUUACAUGUAAACCAAA
cell viability [1]: 76.7 ± 14% | cell viability [2]: 91.7 ± 19% | cell viability [3]: 79.2 ± 8.9% | cell viability [4]: 86.9 ± 22%

UGGUGCUACAUGUAAACCAAA
cell viability [1]: 5.82 ± 0.78% | cell viability [2]: 18 ± 7.3% | cell viability [3]: 3 ± 0.57% | cell viability [4]: 5.68 ± 2.8%

UUGGUCCACAUGUAAACCAAA
cell viability [1]: 60.1 ± 1.4% | cell viability [2]: 41.4 ± 13% | cell viability [3]: 72.8 ± 5.4% | cell viability [4]: 62.1 ± 3.1%

UAGGUUUACAUGUAAACCAAA
cell viability [1]: 78.8 ± 15% | cell viability [2]: 68.9 ± 7.1% | cell viability [3]: 86.4 ± 5.8% | cell viability [4]: 87 ± 10%

UUGUUUCACAUGUAAACCAAA
cell viability [1]: 64.1 ± 8.2% | cell viability [2]: 95.8 ± 13% | cell viability [3]: 73.3 ± 7% | cell viability [4]: 89.2 ± 7%

UCGACGUACAUGUAAACCAAA
cell viability [1]: 99.8 ± 14% | cell viability [2]: 59.7 ± 3.2% | cell viability [3]: 77.2 ± 9.6% | cell viability [4]: 89.7 ± 19%

UCUCAGCACAUGUAAACCAAA
cell viability [1]: 35.4 ± 1.9% | cell viability [2]: 60.6 ± 10% | cell viability [3]: 58.1 ± 2.2% | cell viability [4]: 64.7 ± 10%

UUCGGUCACAUGUAAACCAAA
cell viability [1]: 49 ± 5.3% | cell viability [2]: 45.7 ± 0.61% | cell viability [3]: 60.2 ± 6.4% | cell viability [4]: 37.7 ± 5.2%

UUCUGACACAUGUAAACCAAA
cell viability [1]: 43.1 ± 7.6% | cell viability [2]: 12.4 ± 1.9% | cell viability [3]: 51.1 ± 3.2% | cell viability [4]: 21.2 ± 3.6%

UCGUUACACAUGUAAACCAAA
cell viability [1]: 65.5 ± 14% | cell viability [2]: 30.5 ± 6.3% | cell viability [3]: 27.9 ± 6.8% | cell viability [4]: 98.6 ± 9.7%

UGAGUGGACAUGUAAACCAAA
cell viability [1]: 65.2 ± 9.4% | cell viability [2]: 11.1 ± 4.7% | cell viability [3]: 18.8 ± 3.5% | cell viability [4]: 26.4 ± 5%

UGAGACAACAUGUAAACCAAA
cell viability [1]: 41.4 ± 3% | cell viability [2]: 41.5 ± 3.6% | cell viability [3]: 80.5 ± 7.5% | cell viability [4]: 90.7 ± 25%

UUAGCCCACAUGUAAACCAAA
cell viability [1]: 24.6 ± 2.7% | cell viability [2]: 17.6 ± 4.5% | cell viability [3]: 48.4 ± 1.1% | cell viability [4]: 4.74 ± 1.6%

UACGGUAACAUGUAAACCAAA
cell viability [1]: 69.8 ± 8.9% | cell viability [2]: 96.7 ± 9.6% | cell viability [3]: 67.3 ± 6% | cell viability [4]: 87.2 ± 8.3%

UCUCUCGACAUGUAAACCAAA
cell viability [1]: 32.8 ± 3.9% | cell viability [2]: 67.2 ± 12% | cell viability [3]: 87.6 ± 8.4% | cell viability [4]: 101 ± 11%

UCCCAAAACAUGUAAACCAAA
cell viability [1]: 59.6 ± 8.2% | cell viability [2]: 73.3 ± 13% | cell viability [3]: 93 ± 9.9% | cell viability [4]: 97.8 ± 10%

UUGGAGCACAUGUAAACCAAA
cell viability [1]: 27.7 ± 4.1% | cell viability [2]: 4.25 ± 0.95% | cell viability [3]: 27.4 ± 0.9% | cell viability [4]: 7.38 ± 0.93%

UGAGCGCACAUGUAAACCAAA
cell viability [1]: 58.1 ± 7.2% | cell viability [2]: 37.4 ± 6.6% | cell viability [3]: 63.2 ± 4.7% | cell viability [4]: 64 ± 24%

UUAGCGUACAUGUAAACCAAA
cell viability [1]: 101 ± 6.5% | cell viability [2]: 35.1 ± 4% | cell viability [3]: 81.4 ± 2.2% | cell viability [4]: 52.6 ± 5.7%

UUAAUCUACAUGUAAACCAAA
cell viability [1]: 76.4 ± 19% | cell viability [2]: 83.2 ± 20% | cell viability [3]: 66.4 ± 4.2% | cell viability [4]: 92.2 ± 14%
